Screen size: about 310,000 compounds; about 18,000 (5.8%) were called active. The inconclusive results got no clear call from the source; some entries with a clear call stand among them for comparison. The call rests on the fitted dose curve; in most records, active means well fitted inhibition curve with a large enough effect; inconclusive means small, poorly fitted or top-dose-only effect, or another doubt; inactive means no such curve, though single readings can be large or run the other way. No potency is given beside an inconclusive call; the fits are too rough.
test: Primary qHTS for delayed death inhibitors of the malarial parasite plastid, 48 hour incubation; details: P. falciparum luciferase growth in erythrocytes; series mostly up to 28.7 µM
How it was run: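 Parasite viability was followed by luminescence of a genomically integrated firefly luciferase. Cultures held 0.1% parasitemia at 2% hematocrit (final), incubated under 5% CO2 at 37 C.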
Potency means the concentration at half of the fitted maximal effect; tags describe the fitted curve by direction and shape.

With `COc1ccccc1CNC(=O)c1cc(-c2ccccc2C)n(CC2CC(c3cccc([N+](=O)[O-])c3)=NO2)n1` (stereo not given) as the molecule, how does the Potency read?
Its Potency is active: 5.22 µM.

Which Potency does the source give for `CN(C)CCCN(C(=O)c1ccc(S(=O)(=O)N2CCc3ccccc32)cc1)c1nc2ccc(Cl)cc2s1` here?
The Potency was active: 10.4 µM.

With `CCCn1c2ccccc2c2nnc(SCCN3CCOCC3)nc21` as the molecule, how does the Potency read?
Its Potency is inconclusive [inhibitor, single point].

For `Cc1cccc(C)c1NC(=O)CNC(=O)CNC(=O)Cc1cccc2ccccc12`, which Potency is on record?
Its Potency is “inactive”.

For `CCOC(=O)N1CCN(Cc2cn[nH]c2-c2ccc(-c3ccccc3)cc2)CC1`, which Potency is on record?
Its Potency is inconclusive [inhibitor, single point].

Which Potency does the source give for `O=C(NCC1CCCO1)C1CC(=O)N(c2ccccc2)C1` (stereo not given) here?
Its Potency is inconclusive [inhibitor, single point].

Which Potency does the source give for `O=C(C1CC(=O)N(c2ccc(Cl)cc2)C1)N1CCC(c2nc3ccccc3[nH]2)CC1` (stereo not given) here?
Its Potency is active: 10.4 µM.

With `Nc1cc([N+](=O)[O-])ccc1Nc1ccc(O)cc1` as the molecule, how does the Potency read?
The Potency was inconclusive [inhibitor, single point].

Which Potency does the source give for `COc1ccc(/C=C2\CCCc3c2nc2ccccc2c3C(=O)OCC(=O)c2c(N)n(C)c(=O)n(C)c2=O)cc1` here?
Its Potency is inconclusive [inhibitor, partial curve].

For `CCOC(=O)C1CCCN(Cc2c(C(=O)N3CCCCC3)nc3c(C)cccn23)C1` (stereo not given), which Potency is on record?
The Potency was “inactive”.

With `C=CCn1c(N)c(C(=O)Nc2ccccc2)c2nc3ccccc3nc21` as the molecule, how does the Potency read?
Its Potency is inconclusive [inhibitor, single point].

For `COc1cccc(-c2c(C(=O)N/N=C/c3sccc3C)nnn2-c2nonc2N)c1`, which Potency is on record?
Its Potency is inconclusive [inhibitor, partial curve].

For `COc1ccc(CCNC(=O)COc2ccc(C)nc2[N+](=O)[O-])cc1`, which Potency is on record?
The Potency was “inactive”.

With `O=C(CN1C(=O)CSc2cc(S(=O)(=O)N3CCCCCC3)ccc21)NCCc1ccccc1` as the molecule, how does the Potency read?
Its Potency is inconclusive [inhibitor, single point].

Which Potency does the source give for `N=c1c(-c2nc3ccccc3[nH]2)cc(C(=O)c2ccco2)nn1-c1ccccc1` here?
The Potency was inconclusive [inhibitor, single point].

For `O=C(CNC(=O)C1CCCCC1)NNC(=O)c1ccccc1Br`, which Potency is on record?
The Potency was inconclusive [inhibitor, single point].

For `CCc1nc(Nc2cccc(OC)c2)c2oc3ccccc3c2n1`, which Potency is on record?
Its Potency is inconclusive [inhibitor, partial curve].

With `Cc1ccccc1C(CC(=O)c1cccs1)C(C#N)C#N` (stereo not given) as the molecule, how does the Potency read?
Its Potency is inconclusive [inhibitor, single point].

With `Cc1ccc2nc(-c3ccc(-c4cccc(Cl)c4)cc3)c(NCc3ccccc3)n2c1` as the molecule, how does the Potency read?
The Potency was inconclusive [inhibitor, single point].

Which Potency does the source give for `COc1cc2c(cc1OC)CN(C(=O)c1ccc(OC)c(S(=O)(=O)N3CCCC3)c1)CC2` here?
Its Potency is active: 11.7 µM.

With `CCOC(=O)C1CCCN(C(=S)NC(=O)c2cc(Br)ccc2Cl)C1` (stereo not given) as the molecule, how does the Potency read?
Its Potency is “inactive”.

Which Potency does the source give for `Cc1cc(=O)c2cc(Cl)ccc2[nH]1` here?
The Potency was inconclusive [inhibitor, partial curve].

With `Cc1ccc(SCCC(=O)N/N=C/c2ccccc2O)cc1` as the molecule, how does the Potency read?
Its Potency is active: 14.7 µM.

With `CC(C)(C)c1ccc(C(=O)N2CCC(=O)N(C(COCc3ccccc3)Cc3ccccc3)CC2)cc1` (stereo not given) as the molecule, how does the Potency read?
The Potency was active: 9.28 µM.

Which Potency does the source give for `CCOC(=O)CC1COCCN1C(=O)c1cc(COc2ccc(F)cc2Cl)on1` (stereo not given) here?
The Potency was inconclusive [inhibitor, partial curve, poor fit].

— PubChem BioAssay AID504832 (National Center for Advancing Translational Sciences (NCATS), 2011)
